# According to the supplement of paper PMC4723716:
# ± gives the uncertainty stated by the source. Whole data set: some 9,900 compounds, median “viability index relative to DMSO control” near 1, cut for the lowest 2% near 0.85. The list shows a part of the results.
# System: Plasmodium falciparum NF54 stage V gametocytes
# Experiment: viability index relative to DMSO control (fraction); higher = less gametocyte killing
# Details: 2.5 µM, incubation time: 72 h
# Method in brief: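 P. falciparum NF54 stage V gametocytes (serum-free medium, 0.75% gametocytemia, 1.25% hematocrit) were exposed to compound at 2.5 µM for 72 hr at 37°C under low oxygen, then stained with MitoTracker Red CMXRos and saponin for one to two hours. Red particles of 20–70 µm2 in one field per well were counted, and the viability index is that count scaled to the plate mean of solvent-only wells.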
# [1] = library set: Broad Institute DOS
Compound,viability index [1],viability index (library set: Broad Institute Blood Stage)
C[C@H]1CN([C@@H](C)CO)C(=O)c2ccccc2-c2ccccc2CO[C@H]1CN(C)C(=O)Nc1cccc(C(F)(F)F)c1,0.974 ± 0.03,–
C/C=C/c1ccc2c(c1)O[C@@H](CN(C)C(=O)Nc1ccc(OC)cc1)[C@H](C)CN([C@H](C)CO)S2(=O)=O,1.12 ± 0.062,–
C/C=C/c1ccc([C@H]2[C@@H](C#N)N(c3nc(CC)cs3)[C@@H]2CO)cc1,1.01 ± 0.041,–
Cc1ccc(S(=O)(=O)Nc2ccc3c(c2)C(=O)N([C@H](C)CO)C[C@H](C)[C@H](CN(C)S(=O)(=O)c2cccs2)OCCCC[C@H](C)O3)cc1,1.07 ± 0.14,–
COc1ccccc1NC(=O)N1CC(=O)N2[C@H](CO)[C@H](c3ccc(-c4cccc(C)c4)cc3)[C@@H]2C1,1.03 ± 0.086,–
COc1ccc2c3c([nH]c2c1)[C@@H](CO)N(CC1CC1)C[C@]31CN(C1)C(=O)NC1CCCC1,1.05 ± 0.033,–
O=C(Cc1ccccc1)N1C[C@H]2[C@@H](c3ccccc31)[C@H](CO)N2S(=O)(=O)c1ccccc1,1.01 ± 0.057,–
O=C(c1ccncc1)N1CC(=O)N2[C@H](C1)[C@@H](c1ccc(-c3cccnc3)cc1)[C@@H]2CO,–,0.891 ± 0.059
COc1cccc(S(=O)(=O)N2C[C@@H](O)COC[C@@H]3O[C@H](CC(=O)NCCCN4CCOCC4)CC[C@H]32)c1,1.05 ± 0.073,–
O=C(CC1CC1)N1CC2(C1)[C@H](c1ccccc1)[C@@H](CO)N2S(=O)(=O)Cc1ccccc1,1.116 ± 0.0066,–
C[C@@H](NC(=O)C[C@@H]1CC[C@@H]2[C@@H](COc3ccc(NC(=O)C4CCOCC4)cc3C(=O)N2C)O1)c1ccccc1,1.12 ± 0.1,–
O=C(Nc1ccc(F)cc1)N1C[C@H]2[C@@H](c3ccccc31)[C@@H](CO)N2C(=O)c1ccncc1,1.01 ± 0.08,–
CN(C)CCCNC(=O)[C@H]1[C@H](CO)[C@H]2Cn3c(ccc(-c4cccnc4)c3=O)[C@@H]1N2C(=O)CC1CC1,1.06 ± 0.044,–
CC[C@@H]1C/C=C\C[C@H](c2ccccc2)NC(=O)CCC(=O)N1,1.0995 ± 0.00043,–
Cc1noc(C)c1S(=O)(=O)N(C)C[C@@H]1OCCCC[C@H](C)Oc2ccc(NS(=O)(=O)c3cn(C)cn3)cc2C(=O)N([C@H](C)CO)C[C@@H]1C,1.128 ± 0.0057,–
COc1ccc(CN2[C@H](CO)[C@@H]3c4ccccc4NC[C@@H]32)cc1,0.972 ± 0.084,–
CCCNC(=O)[C@@H]1[C@@H](CO)[C@@H]2Cn3c(cccc3=O)[C@@H]2N1Cc1cccc(F)c1,1.05 ± 0.025,–
COc1ccc2c3c([nH]c2c1)[C@H](CO)N(C[C@]31CN(C1)C(=O)Cc1cccnc1)S(C)(=O)=O,1.08 ± 0.04,–
Cc1ccc(NC(=O)Nc2ccc3c(c2)C(=O)N(C)[C@H]2CC[C@H](CC(=O)NCC(F)(F)F)O[C@H]2CO3)cc1,1.11 ± 0.067,–
N#C[C@H]1[C@H](c2ccccc2-c2ccccc2F)[C@@H](CO)N1C(=O)c1cccc(F)c1,1.09 ± 0.16,–
CCCNC(=O)N1C[C@@]2(C1)CN(Cc1ccc(F)cc1)[C@@H](CO)c1[nH]c3cc(OC)ccc3c21,1.08 ± 0.035,–
CCC(=O)NC[C@H]1[C@@H](c2ccc(-c3ccc(F)cc3)cc2)[C@@H](CO)N1C(=O)CC,0.964 ± 0.047,–
CCS(=O)(=O)Nc1ccc2c(c1)C(=O)N(C)[C@H]1CC[C@@H](CC(=O)NCCCN3CCOCC3)O[C@H]1CO2,1.1 ± 0.13,–

Compound,viability index [1],viability index (library set: Broad Institute Blood Stage)
COc1ccc(NC(=O)N(C)C[C@H]2Oc3ccc(NC(=O)CCN4CCOCC4)cc3C(=O)N([C@H](C)CO)C[C@H]2C)cc1,0.931 ± 0.086,–
Cc1noc(C)c1S(=O)(=O)N(C)C[C@H]1OCCCC[C@@H](C)Oc2ccc(NS(=O)(=O)c3cn(C)cn3)cc2C(=O)N([C@@H](C)CO)C[C@H]1C,1.14 ± 0.098,–
O=C(CN1CCOCC1)N1CC[C@@H]2[C@H](CO)Nc3ccc(Br)cc3[C@@H]21,1.14 ± 0.039,–
CCN1CC(=O)N2[C@H](C1)[C@@H](c1ccc(Br)cc1)[C@@H]2CO,1.01 ± 0.035,–
CCC(=O)Nc1ccc2c(c1)C(=O)N(C)C[C@@H](OC)[C@@H](C)CN(Cc1nccs1)[C@H](C)CO2,1.16 ± 0.082,–
C[C@@H]1CCCCO[C@H](CN(C)C(=O)C2CCCCC2)[C@@H](C)CN([C@@H](C)CO)C(=O)c2cc(NS(=O)(=O)c3ccccc3)ccc2O1,1.027 ± 0.0049,–
C[C@@H]1CN([C@@H](C)CO)C(=O)c2cccc(NS(=O)(=O)c3cn(C)cn3)c2O[C@@H]1CN(C)Cc1ccc(Oc2ccccc2)cc1,0.986 ± 0.093,–
O=C(Nc1ccc2c(c1)[C@@H]1C[C@@H](CC(=O)N3CCCCC3)O[C@@H](CO)[C@@H]1O2)NC1CCCCC1,0.932 ± 0.19,–
COc1cccc(NC(=O)N2C[C@H](O)COC[C@H]3O[C@@H](CC(=O)N(C)C)CC[C@@H]32)c1,1.054 ± 0.0028,–
Cc1ccc(S(=O)(=O)Nc2cccc3c2O[C@H](CN(C)C(=O)Nc2ccc(C(F)(F)F)cc2)[C@H](C)CN([C@H](C)CO)C3=O)cc1,1.07 ± 0.04,–
CO[C@H]1CN(C)C(=O)c2cc(NC(=O)NC(C)C)ccc2OC[C@H](C)N(C(=O)CN(C)C)C[C@@H]1C,1.12 ± 0.067,–
C/C=C/c1ccc([C@@H]2[C@@H](CO)N3CCCCN(S(=O)(=O)c4ccc(OC)cc4)C[C@H]23)cc1,1.011 ± 0.0064,–
CNC(=O)C[C@@H]1CC[C@@H]2[C@H](COC[C@H](O)CN2Cc2ccccc2F)O1,1.11 ± 0.016,–
CO[C@H]1CN(C)C(=O)c2ccc(NC(=O)Nc3ccccc3)cc2OC[C@@H](C)N(C(=O)CC2CC2)C[C@H]1C,1.02 ± 0.056,–
C[C@@H]1CCCCO[C@@H](CN(C)C(=O)c2ccncc2)[C@@H](C)CN([C@H](C)CO)C(=O)c2cc(NC(=O)CCC(F)(F)F)ccc2O1,1.05 ± 0.027,–
CN(C)CC(=O)N1[C@H](CO)[C@@H](c2ccccc2)C12CN(C(=O)c1ccc(F)cc1)C2,1.04 ± 0.024,–
O=C(O)C[C@@H]1C[C@H]2c3cc(NC(=O)Cc4ccncc4)ccc3O[C@H]2[C@H](CO)O1,1.096 ± 0.0071,–
COc1ccc(-c2ccc([C@@H]3[C@H](C#N)N(C(=O)NC(C)C)[C@H]3CO)cc2)cc1,1.03 ± 0.1,–
O=C(Nc1ccc(F)cc1)N1C[C@@H]2[C@H](c3ccccc31)[C@@H](CO)N2C(=O)c1ccncc1,0.9874 ± 0.0047,–
O=C(C[C@H]1C=C[C@@H](NC(=O)c2ccc3c(c2)OCO3)[C@@H](CO)O1)NC1Cc2ccccc2C1,0.9655 ± 0.0025,–
CO[C@@H]1CN(C)C(=O)c2ccc(NC(=O)C3CC3)cc2OC[C@H](C)N(C(C)=O)C[C@H]1C,1.13 ± 0.056,–
C[C@H]1CN([C@@H](C)CO)C(=O)CCCn2nncc2CO[C@@H]1CN(C)S(=O)(=O)c1ccc(Oc2ccccc2)nc1,1.05 ± 0.065,–
O=C(CN1CCOCC1)N1[C@@H](CO)[C@@H]2c3ccccc3NC[C@@H]21,1.07 ± 0.011,–

Compound,viability index [1],viability index (library set: Broad Institute Blood Stage)
Cc1ccc(S(=O)(=O)N(C)C[C@@H]2Oc3cc(C#CC4CCCC4)ccc3S(=O)(=O)N([C@H](C)CO)C[C@H]2C)cc1,0.766 ± 0.091,–
N#C[C@H]1[C@H](c2ccccc2)[C@@H](CO)N1C(=O)c1ccc2c(c1)OCO2,1.03 ± 0.084,–
C[C@@H]1CN([C@H](C)CO)C(=O)c2cc(NS(=O)(=O)c3ccc(Cl)cc3)ccc2O[C@@H](C)CCCCO[C@@H]1CN(C)C(=O)CCCN(C)C,1.14 ± 0.097,–
C/C=C/c1ccc([C@H]2[C@@H](CO)N(S(=O)(=O)CC)[C@@H]2CN(C)C(=O)CC)cc1,0.972 ± 0.042,–
COC(=O)C[C@H]1CC[C@@H]2[C@H](COc3ccc(NC(=O)Nc4c(C)noc4C)cc3C(=O)N2C)O1,0.938 ± 0.07,–
Cc1noc(C)c1S(=O)(=O)N(C)C[C@H]1OCCCC[C@@H](C)Oc2ccc(NC(=O)CCC(F)(F)F)cc2C(=O)N([C@@H](C)CO)C[C@@H]1C,1.08 ± 0.15,–
CCS(=O)(=O)NCC[C@H]1CC[C@@H](NS(=O)(=O)c2ccccc2C)[C@H](CO)O1,0.93 ± 0.081,–
CN(C)C(=O)c1cccc(-c2ccc3c(c2)[C@@H]2[C@@H](CCN2C(=O)Nc2ccc(F)cc2)[C@H](CO)N3C)c1,1.11 ± 0.017,–
CN(C)C(=O)c1ccc(-c2ccc([C@@H]3[C@@H]4CN(Cc5ccc6c(c5)OCO6)C[C@H]3N4)cc2)cc1,1.05 ± 0.098,–
CO[C@@H]1CC[C@H]2CCOc3c(C#N)cccc3C(=O)N(C)CCCC(=O)N(C)C[C@@H]1O2,1.01 ± 0.015,–
COc1ccc2c3c([nH]c2c1)[C@H](CO)N(C[C@]31CCN(CC2CCCC2)CC1)C(=O)CN1CCOCC1,1.04 ± 0.026,–
CN(C)CC(=O)N[C@H]1C=C[C@@H](CC(=O)NCc2ccc(Cl)cc2)O[C@H]1CO,1.11 ± 0.071,–
O=C(CCN1CCCCC1)NCC[C@@H]1CC[C@@H](NS(=O)(=O)c2cccc(Cl)c2)[C@H](CO)O1,0.981 ± 0.028,–
CCc1cnc(N2[C@H](CO)[C@@H](c3ccc(-c4cccc(F)c4)cc3)[C@@H]2C#N)s1,1.0485 ± 0.00086,–
COc1ccccc1C(=O)Nc1ccc2c(c1)C(=O)N(C)C[C@@H](OC)[C@@H](C)CN(C(C)=O)[C@@H](C)CO2,1.06 ± 0.011,–
Cc1noc(C)c1NC(=O)Nc1ccc2c(c1)C(=O)N([C@@H](C)CO)C[C@@H](C)[C@H](CN(C)S(=O)(=O)c1cccs1)OCCCC[C@@H](C)O2,1 ± 0.02,–
COc1ccc(CNC(=O)N(C)C[C@@H]2OCc3ccccc3-c3c(n(C)c4ccccc34)C(=O)N([C@@H](C)CO)C[C@@H]2C)cc1,0.966 ± 0.15,–
CN1c2ccc(Br)cc2[C@@H]2[C@@H](CCN2C(=O)Nc2cccc(F)c2)[C@@H]1CO,1.07 ± 0.041,–
C[C@@H]1CCCCO[C@H](CN(C)C(=O)NC2CCCCC2)[C@H](C)CN([C@@H](C)CO)C(=O)c2cc(N(C)C)ccc2O1,1.0461 ± 0.00037,–
CCCN1[C@@H]2c3ccc(-c4ccccc4F)c(=O)n3C[C@@H]2[C@@H](CO)[C@@H]1C(=O)N1CCOCC1,0.97 ± 0.086,–
O=C(CC1CC1)N1CC(=O)N2[C@@H](CO)[C@@H](c3ccc(C#Cc4cccc(F)c4)cc3)[C@@H]2C1,1 ± 0.075,–
CO[C@H]1CN(C)C(=O)c2ccc(NC(=O)NC(C)C)cc2OC[C@@H](C)N(Cc2ccc(-c3ccccn3)cc2)C[C@H]1C,1.06 ± 0.069,–
C/C=C/c1ccc2n(c1=O)C[C@@H]1[C@@H](CO)[C@H](C(=O)NCc3ccc4c(c3)OCO4)[C@H]2N1C(=O)COC.C/C=C\c1ccc2n(c1=O)C[C@@H]1[C@@H](CO)[C@H](C(=O)NCc3ccc4c(c3)OCO4)[C@H]2N1C(=O)COC,1.08 ± 0.046,–
